The campaign covered roughly 360,000 compounds. About 6,000 (1.7%) were called active. The inconclusive results got no clear call from the source; some entries with a clear call stand among them for comparison. Calls follow the shape of the dose curve; as a rule, active = well fitted cell-killing curve with a large enough effect; inconclusive = small, poorly fitted or top-dose-only effect, or effect the other way; inactive = flat fitted curve, though single readings scatter. No potency is given beside an inconclusive call; the fits are too rough.
Test: qHTS for induction of synthetic lethality in tumor cells producing 2HG: qHTS for the HT-1080-NT fibrosarcoma cell line;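 also: NT is the 2HG producing partner of a matched IDH1 knockdown line; nearly all actives have a fitted effect of over 55% in size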;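 as to activity, negative = less viability: 0% = DMSO-treated cells and -100% = media-only wells without cells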
Details: HT-1080-NT fibrosarcoma viability, CellTiter-Glo ATP luminescence, 48 h; activity, negative = less viability: at 46.1 µM (top of the series) unless noted
In short: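 Viability of the 2HG-overproducing fibrosarcoma line after 48 hours of compound exposure at 37 degrees C was determined by luminescence with CellTiter-Glo, and concentration-effect curves were then fitted and categorized.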
Potency is read from the fitted curve at half-maximal effect; tags tell the direction and shape of the fitted curve.

| Compound | Potency | activity, negative = less viability |
| --- | --- | --- |
| CCC1=C(OC(=O)N(CC)CC)N2C(=O)OC(=NCC3CC3)[C@]2(Cc2ccccc2)[C@H]2C1=CC[C@H]1C(=O)N(CC)C(=O)[C@H]12 | inconclusive [cytotoxic, single point] |  |
| N#C/C(=C\c1ccncc1)c1ccccn1 | inconclusive [cytotoxic, single point] |  |
| N#CC(=C1C=CC(=NO)C(Cl)=C1)c1ccccc1 | active: 7.31 µM |  |
| COc1ccc(-c2ccc(C(=O)Nc3ccc(Cl)cc3)c3occc23)c(C)c1 | inconclusive [cytotoxic, single point] |  |
| Cc1ccc2c(C)c(C(=O)N(Cc3ccccc3)C3CCS(=O)(=O)C3)oc2c1 (stereo not drawn) | inconclusive [cytotoxic, single point] |  |
| O=C1c2cccc3c([N+](=O)[O-])ccc(c23)C(=O)N1c1ccccn1 | active: 25.9 µM |  |
| COc1cc(/C=N/NC(=O)NC23CC4CC(CC(C4)C2)C3)ccc1O | active: 25.9 µM |  |
| CCN1C/C(=C/c2ccc(OC)c(O)c2)C(=O)/C(=C/c2ccc(OC)c(O)c2)C1 | inconclusive [cytotoxic, single point] |  |
| CCOC(=O)CCSc1nc(C)cc(C(F)(F)F)c1C#N |  | inactive: 0% |
| CCN1CCN(Cc2ccc(NC(=O)c3ccc(C)c(NC(=O)C(=O)c4c[nH]c5ccccc45)c3)cc2C(F)(F)F)CC1 | active: 16.4 µM |  |
| CCc1c(O)nc(SCC(=O)N2CCOCC2)n(-c2ccccc2)c1=O | inconclusive [rising, single point] |  |
| CCOC(=O)c1c(-c2ccccc2)oc2ccc(O)c(CN(C)C)c12 | inconclusive [cytotoxic, single point] |  |
| OC(c1cc(Cl)cc(Cl)c1)c1ncc(-c2ccccc2F)[nH]1 (stereo not drawn) | inconclusive [cytotoxic, partial curve] |  |
| O=C1CN(C(=O)c2c(F)cccc2F)C(c2ccccc2)c2cc(Br)ccc2N1 (stereo not drawn) | inconclusive [cytotoxic, single point] |  |
| CCC(=O)N1CCN(c2ccc(NC(=O)COc3ccc(CC)cc3)cc2)CC1 |  | inactive: -17.9% |
| O=S(=O)(CCN1CCN(C(c2ccccc2)c2ccccc2)CC1)C(F)(F)F | inconclusive [cytotoxic, single point] |  |
| CCOc1nc(CC)nc(NC(=O)NS(=O)(=O)c2ccccc2Cl)n1 |  | inconclusive: 38.4% |
| COc1cc(NC(=O)Nc2cccc(Cl)c2)c(OC)cc1NC(=O)CN1CCCCC1 | inconclusive [cytotoxic, single point] |  |
| Cc1nnc2ccc(-c3cccc(NS(=O)(=O)c4ccccc4[N+](=O)[O-])c3)nn12 | inconclusive [cytotoxic, full curve] |  |
| COc1ccc(N2CCN(C(=O)CSc3nnc(-c4cc5ccccc5cc4O)n3C)CC2)cc1 | inconclusive [cytotoxic, single point] |  |
| CCN(CC)S(=O)(=O)c1cccc(-c2nnc(SCCOc3ccccc3)o2)c1 | inconclusive [cytotoxic, single point] |  |
| COCCn1c(-c2ccc(F)cc2)nc2cccnc21 |  | inactive: 19.8% |
| CN(C)c1ccc(C(C(=O)NCC2CCCO2)N(Cc2ccccc2)C(=O)c2snc(C(N)=O)c2N)cc1 (stereo not drawn) |  | inactive: -19.1% |

| Compound | Potency | activity, negative = less viability |
| --- | --- | --- |
| COc1ccc(NC(=O)CSCC(=O)N(C)CC(=O)Nc2ccc(Cl)c(C(F)(F)F)c2)cc1 | inconclusive [cytotoxic, partial curve] |  |
| Cc1cc(C(=O)Nc2ccc3c(c2)OCCO3)c(C)o1 |  | inactive: -7.04% |
| C/C(Cn1nnc([N+](=O)[O-])n1)=N\NC(=O)c1ccccc1 | inconclusive [cytotoxic, single point] |  |
| O=C(N/N=C/C(Br)=C\c1ccccc1)c1cccs1 | inconclusive [cytotoxic, single point] |  |
| Cc1ccc(CSC(Nc2ccc(F)cc2)=C(C#N)C#N)cc1 | inconclusive [cytotoxic, partial curve, poor fit] |  |
| O=C(CCS(=O)(=O)Cc1ccc(Cl)cc1)NCCCN1CCN(c2ccccc2F)CC1 | inconclusive [cytotoxic, single point] |  |
| Cc1cc(Br)cn2c(Cc3cccc(F)c3)c(-c3ccc(F)cc3)nc12 | inconclusive [cytotoxic, single point] |  |
| Cn1cnnc1SCC(=O)NNC(=O)COc1ccc(Cl)cc1 |  | inactive: 7.75% |
| COc1ccc(C(=O)c2cc([N+](=O)[O-])ccc2N2CCN(C)CC2)cc1 | active: 2.59 µM |  |
| O=C(Nc1nc(-c2ccccc2)cs1)C1CCCN(S(=O)(=O)c2ccccc2)C1 (stereo not drawn) | inconclusive [cytotoxic, partial curve] |  |
| CCc1ccc(/C=N/NC(=O)c2cc(C3CC3)nc3ccc(Br)cc23)s1 | active: 6.51 µM |  |
| COc1ccc(-c2nnc(SCC(=O)Nc3ncc(C)s3)n2-c2ccccc2)cc1OC | inconclusive [cytotoxic, partial curve] |  |
| COc1ccccc1/C=C1\SC(=O)N(CC(=O)NCCCn2ccnc2)C1=O |  | inconclusive: 9.99% |
| Cc1ccc(CN2CCC(C(=O)c3ccc(F)cc3)CC2)cc1 |  | inactive: -1.62% |
| COCCCn1c(C)nc2c(c1=O)c1nc3ccccc3nc1n2CCc1ccccc1 |  | inconclusive: 31.3% |
| Cc1cccc(NC(=O)c2cccnc2)c1 | inconclusive [rising, partial curve] |  |
| Nc1cccc2c1C(=O)N(CC(=O)NC13CC4CC(CC(C4)C1)C3)C2=O |  | inactive: -2.53% |
| Cc1ccc(-n2nc3c(N4CCC(C(=O)NCCc5ccco5)CC4)nnc(C)c3c2C)cc1 | inconclusive [cytotoxic, single point] |  |
| CCOc1ccccc1C(=O)Nc1nn[nH]n1 |  | inactive: 9.62% |
| CCc1ccc(OCC(=O)NC(NC(=S)Nc2ccc(C)cc2C)C(Cl)(Cl)Cl)cc1 (stereo not drawn) | inconclusive [cytotoxic, single point] |  |
| Cc1nc(Cl)sc1C(=O)Nc1cc(F)cc(F)c1 | inconclusive [cytotoxic, single point] |  |
| COc1ccc(CNC(=O)Nc2cccc(Cl)c2)cc1 | inconclusive [cytotoxic, single point] |  |
| Cc1c(C(=O)NCc2ccc(F)cc2)sc(=O)n1Cc1ccc(Cl)c(Cl)c1 | inconclusive [cytotoxic, single point] |  |

| Compound | Potency | activity, negative = less viability |
| --- | --- | --- |
| CCOC(=O)c1ccc(S(=O)(=O)N2CCC(C(=O)NCC3COc4ccccc4O3)CC2)cc1 (stereo not drawn) |  | inactive: -7.13% |
| COc1cccc(-c2cc(=O)c3cc(NC(=O)c4ccc(N(C)C)cc4)ccc3[nH]2)c1 | active: 1.3 µM |  |
| O=C(c1ccc2c(c1)OCO2)N1CCN(CCN2C(=O)c3cccc4cccc(c34)C2=O)CC1 | inconclusive [rising, single point] |  |
| CCOc1ccc(N2C(N)=NC(N)=NC2(C)C)cc1 | inconclusive [cytotoxic, single point] |  |
| COc1ccc(C(C)(NC(C)=O)c2nc(-c3cncnc3)cs2)cc1 (stereo not drawn) | inconclusive [rising, single point] |  |
| COCOCCn1cc(CN2CCS(=O)(=O)N(Cc3ccc(-c4ccc(F)cc4)cc3)C(CC(C)C)C2=O)nn1 (stereo not drawn) |  | inconclusive: -33% [cytotoxic] |
| Cc1cc(=O)oc(C)c1C(=O)NCCCN1CCN(c2ccc(F)cc2)CC1 | inconclusive [cytotoxic, single point] |  |
| CCNc1ccc(Br)cc(C(=O)/C=C/c2ccc(Cl)cc2Cl)c1=O | inconclusive [cytotoxic, single point] |  |
| COc1ccc(C2C3=C(COC3=O)Oc3cc4c(cc32)OCO4)cc1OC (stereo not drawn) | active: 5.8 µM |  |
| O=C1C=C(Nc2ccccc2C(=O)O)c2ccccc2C1=O | inconclusive [cytotoxic, partial curve] |  |
| O=Cc1cccc(OCc2cccc3ccccc23)c1 | inconclusive [cytotoxic, single point] |  |
| COc1ccc(CCN2C(=O)C=CC2=O)cc1OC | inconclusive [cytotoxic, single point] |  |
| N#CCC(=O)NC(=O)NCC1CC1 | inconclusive [rising, single point] |  |
| O=C1c2cccc3cccc(c23)C(=O)N1c1ccccc1Cl |  | inactive: 3.52% |
| Cc1ccc(-c2csc(N(CCCN3CCOCC3)C(=O)c3ccco3)n2)cc1 | inconclusive [cytotoxic, single point] |  |
| O=C(O)c1cccc(N2C(=O)c3cc([N+](=O)[O-])cc4cc([N+](=O)[O-])cc(c34)C2=O)c1 | inconclusive [cytotoxic, single point] |  |
| Cc1nc(N(C)Cc2ccccc2)c2c(C)c(C)sc2n1 |  | inactive: -6.85% |
| CCn1nc(C)c(CNC(=O)c2cc(COc3ccc(F)cc3Cl)on2)c1C | active: 9.2 µM |  |
| C[C@@H]1[C@H]2[C@@H](O[C@@H]3O[C@H](CO)[C@@H](O)[C@H](O)[C@H]3O)OC=C(C(=O)O)[C@H]2C[C@@H]1O | inconclusive [rising, partial curve] |  |
| O=[N+]([O-])c1ccc(N2CCc3ccccc3C2)cc1 |  | inactive: 2.08% |
| CC(C)n1cnc2c(NCc3ccccc3)nc(NCc3ccccc3)nc21 | inconclusive [cytotoxic, single point] |  |
| Cc1cc2c(cc1C)-c1c(ssc1=Nc1ccc(S(N)(=O)=O)cc1)C(C)(C)N2 | inconclusive [cytotoxic, partial curve] |  |

From PubChem BioAssay AID686970 (National Center for Advancing Translational Sciences (NCATS), 2013)
